# According to the supplement of paper PMC12355420:
# Structures can show the parent of a compound that is named as a salt. This is one part of the list. Cut-off read from the data, not from the text of the source: active = 0.5 or less and inactive = the rest. Repeats are few or missing, and single values can be far off.
# Experiments:
# Conditions in all cases: 50 µM; 24 h
# [1] = system: HeLa VPS33A reporter cells; assay: relative cell viability (CellMask signal) vs DMSO (fraction of DMSO); higher = less cytotoxic;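 note: primary screen of an FDA-approved drug library in HeLa reporter cells in 96-well format, CellMask signal normalized to DMSO-treated wells set as 1, under 0.5 deemed highly cytotoxic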
# [2] = system: HeLa VPS33A R498W KI + HA-SDC1-FLAG; assay: relative GAG core protein HA-SDC1 amount per cell number vs DMSO (fraction of DMSO); higher = more SDC1 (GAG core protein);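 note: HA-SDC1 level read out by In-Cell Western staining with an anti-HA antibody against the N-terminal tag, screening FDA-approved library drugs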
# [3] = system: HeLa VPS33A KO + NLuc-VPS33A R498W; assay: relative mutant VPS33A R498W amount (NanoLuc luminescence) vs DMSO (fraction of DMSO); HeLa model of a glycosaminoglycan (GAG) storage disease; KI is knock-in and KO knock-out; SDC1 is syndecan 1; higher = higher mutant VPS33A level;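 note: screen of an FDA-approved drug library, NanoLuc luminescence read after lysing the treated cells, taken as a measure of mutant VPS33A protein stability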
Structure (SMILES),relative cell viability [1],relative GAG core protein HA-SDC1 amount per cell number [2],relative mutant VPS33A R498W amount [3]
CC[C@H]1[C@@H](O)[C@@H]2[C@H](CC[C@]3(C)[C@@H]([C@H](C)CCC(=O)O)CC[C@@H]23)[C@@]2(C)CC[C@@H](O)C[C@@H]12 [Obeticholic Acid],0.686,active: 0.269,0.811
CC1=Nc2ccc(Cl)cc2S(=O)(=O)N1 [Diazoxide],1.1,inactive: 0.787,0.975
CCCCOc1ccc(OCCCN2CCOCC2)cc1 [Pramoxine HCl],0.862,inactive: 0.786,1.54
C#C[C@]1(O)CC[C@H]2[C@@H]3CCc4cc(OC)ccc4[C@H]3CC[C@@]21C [Mestranol],1.15,inactive: 1.31,1
C[C@]12CC[C@@H]3c4ccc(O)cc4CC[C@H]3[C@@H]1C[C@@H](O)[C@@H]2O [Estriol],1.04,inactive: 0.789,0.811
NC[C@H]1O[C@H](O[C@H]2[C@H](O)[C@@H](O[C@H]3O[C@H](CO)[C@@H](O)[C@H](N)[C@H]3O)[C@H](N)C[C@@H]2N)[C@H](N)C[C@@H]1O [Tobramycin],1.14,inactive: 0.765,1.07
NC(=O)N1c2ccccc2CC(=O)c2ccccc21 [Oxcarbazepine],1.08,inactive: 0.832,1.31
CN1CCC[C@@H]1Cc1c[nH]c2ccc(CCS(=O)(=O)c3ccccc3)cc12 [Eletriptan HBr],1.03,inactive: 0.918,0.972
CCCC(=O)[O-].[Na+] [Sodium butyrate],1.05,inactive: 0.897,1.11
Cn1nnc2c(C(N)=O)ncn2c1=O [Temozolomide],1.28,inactive: 0.778,0.905
OC[C@H]1O[C@@H](Oc2cc(O)cc(/C=C/c3ccc(O)cc3)c2)[C@H](O)[C@@H](O)[C@@H]1O [Polydatin],1.03,inactive: 0.953,1.17
COc1ccc2[nH]c([S@@+]([O-])Cc3ncc(C)c(OC)c3C)nc2c1 [Esomeprazole Sodium],1.12,inactive: 0.844,0.924
NC(=O)c1ccc(I)c([N+](=O)[O-])c1 [Iniparib (BSI-201)],0.728,active: 0.317,1.03
CC(=O)O[C@]1(C(C)=O)CC[C@H]2[C@@H]3C=C(Cl)C4=CC(=O)[C@@H]5C[C@@H]5[C@]4(C)[C@H]3CC[C@@]21C [Cyproterone Acetate],1.04,inactive: 0.569,0.594
CC(=O)NCCCS(=O)(=O)O [Acamprosate calcium],1.17,inactive: 1.34,0.938
N#CC(c1ccc(Cl)cc1)c1c(Cl)cc(-n2ncc(=O)[nH]c2=O)cc1Cl (configuration not stated) [Diclazuril],1.13,active: 0.364,1.58
NCCS(=O)(=O)O [Taurine],1.1,inactive: 0.827,0.778
CCOC(=O)N1c2ccc(C(F)(F)F)cc2[C@@H](N(Cc2cc(C(F)(F)F)cc(C(F)(F)F)c2)C(=O)OC)C[C@H]1CC [Torcetrapib],1,inactive: 1.12,1.36
CCCCC1C(=O)N(c2ccccc2)N(c2ccccc2)C1=O [Phenylbutazone],0.993,inactive: 0.952,1.59
CCNC(=O)[C@@H]1CCCN1C(=O)[C@H](CCCNC(=N)N)NC(=O)[C@H](CC(C)C)NC(=O)[C@@H](CC(C)C)NC(=O)[C@H](Cc1ccc(O)cc1)NC(=O)[C@H](CO)NC(=O)[C@H](Cc1c[nH]c2ccccc12)NC(=O)[C@H](Cc1c[nH]cn1)NC(=O)[C@@H]1CCC(=O)N1 [Leuprolide Acetate],1.01,inactive: 1.17,1.05
O=C(O)CCc1nc(-c2ccccc2)c(-c2ccccc2)o1 [Oxaprozin],0.857,inactive: 0.806,1.18
CN(C)c1cc(NC(=O)CNC(C)(C)C)c(O)c2c1C[C@H]1C[C@H]3[C@H](N(C)C)C(=O)C(C(N)=O)=C(O)[C@@]3(O)C(=O)C1=C2O [Tigecycline],0.985,inactive: 1.04,1.26
O=NN(CCCl)C(=O)NC1CCCCC1 [Lomustine],0.955,inactive: 0.83,0.785
O.O.O=P([O-])([O-])O.[Na+].[Na+] [Sodium phosphate dibasic],1.24,inactive: 0.926,1.01
"O=C(O)CCCC[C@@H]1CCSS1 [(R)-(+)-1,2-Dithiolane-3-pentanoic acid]",0.966,inactive: 1.03,1.67
O=C(/C=C/c1ccc(O)c(O)c1)O[C@@H]1C[C@](O)(C(=O)O)C[C@@H](O)[C@H]1O [Chlorogenic acid],1.03,inactive: 0.981,1.38
NC12CC3CC(CC(C3)C1)C2 [Amantadine HCl],1.05,inactive: 1.36,1.74

Structure (SMILES),relative cell viability [1],relative GAG core protein HA-SDC1 amount per cell number [2],relative mutant VPS33A R498W amount [3]
O=C(O)/C=C/c1ccc(Cn2ccnc2)cc1 [Ozagrel],1.03,inactive: 1.07,0.996
COC(=O)C1=C(C)NC(C)=C(C(=O)OCCN2CCN(C(c3ccccc3)c3ccccc3)CC2)C1c1cccc([N+](=O)[O-])c1 (configuration not stated) [Manidipine],0.803,active: 0.33,0.908
CC(=O)Oc1ccccc1C(=O)Nc1ncc([N+](=O)[O-])s1 [Nitazoxanide],1.12,inactive: 1.06,0.973
CC(C)=CCC[C@](C)(O[C@@H]1O[C@H](CO[C@@H]2O[C@H](CO)[C@@H](O)[C@H](O)[C@H]2O)[C@@H](O)[C@H](O)[C@H]1O)[C@H]1CC[C@]2(C)[C@@H]1[C@H](O)C[C@@H]1[C@@]3(C)CC[C@H](O[C@@H]4O[C@H](CO)[C@@H](O)[C@H](O)[C@H]4O[C@@H]4O[C@H](CO)[C@@H](O)[C@H](O)[C@H]4O)C(C)(C)[C@@H]3CC[C@]12C [Ginsenoside Rb1],0.918,inactive: 0.689,1.34
Cc1cc(C#N)cc(C)c1Oc1nc(Nc2ccc(C#N)cc2)nc(N)c1Br [Etravirine (TMC125)],1.12,inactive: 0.911,1.43
O=C(O)Cc1ccccc1Nc1c(Cl)cccc1Cl [Diclofenac Sodium],1.02,active: 0.428,0.443
CCC(=O)OCC(=O)[C@@]1(OC(=O)CC)[C@@H](C)C[C@H]2[C@@H]3CCC4=CC(=O)C=C[C@]4(C)[C@@]3(Cl)[C@@H](O)C[C@@]21C [Beclomethasone dipropionate],1.19,inactive: 0.501,0.497
OCC1(O)OC[C@@H](O)[C@@H](O)[C@@H]1O (stereo partly drawn) [D-(-)-Fructose],0.998,inactive: 0.914,1.41
Cc1nnc(C(=O)NC(C)(C)c2nc(C(=O)NCc3ccc(F)cc3)c(O)c(=O)n2C)o1 [Raltegravir (MK-0518)],1.19,inactive: 1.04,0.964
Nc1[nH]cnc2ncnc1-2 [Adenine HCl],0.853,inactive: 1.09,1.76
O=P(O)(O)C(O)(Cc1cccnc1)P(=O)(O)O [Risedronate Sodium],0.968,inactive: 1.45,1.12
Clc1ccc(COC(Cn2ccnc2)c2ccc(Cl)cc2Cl)c(Cl)c1 (configuration not stated) [Miconazole],0.962,active: 0.376,0.00333
Cc1cc(NS(=O)(=O)c2ccc(N)cc2)no1 [Sulfamethoxazole],1.13,inactive: 0.822,1.21
C#CCN(C)Cc1ccccc1 [Pargyline (hydrochloride)],1.13,inactive: 0.817,1.27
O=c1c(-c2ccc(O)cc2)coc2cc(O)cc(O)c12 [Genistein],1.06,inactive: 0.797,1.05
Nc1ncnc2c1ncn2[C@@H]1O[C@H](COP(=O)(O)OP(=O)(O)OP(=O)(O)O)[C@@H](O)[C@H]1O [ATP disodium salt],1.1,inactive: 0.924,0.983
CCCCC/C=C\C/C=C\CCCCCCCC(=O)O [Linoleic Acid],1.14,inactive: 0.832,1.49
CCn1cc(C(=O)O)c(=O)c2cnc(N3CCCC3)nc21 [Piromidic Acid],1.08,inactive: 0.791,0.617
CCN1CCN(C(=O)N[C@@H](C(=O)N[C@@H]2C(=O)N3C(C(=O)O)=C(CSc4nnnn4C)CS[C@H]23)c2ccc(O)cc2)C(=O)C1=O [Cefoperazone],1.38,inactive: 1.36,1.12
NC[C@H]1CC[C@H](C(=O)O)CC1 [Tranexamic Acid],1.08,inactive: 0.95,1.03
CCOC(=O)C1=C[C@@H](OC(CC)CC)[C@H](NC(C)=O)[C@@H](N)C1 [Oseltamivir],0.995,inactive: 1.31,1.23
COC(=O)c1ccccc1O [Methyl salicylate],0.966,inactive: 0.887,1.41
CCCCc1nc(Cl)c(CO)n1Cc1ccc(-c2ccccc2-c2nnn[nH]2)cc1 [Losartan Potassium (DuP 753)],1.13,inactive: 1.2,1.33
C[C@@H](O)[C@H](N)C(=O)O [L-Threonine],1.03,inactive: 0.968,1.1
OC[C@H]1OC(O)[C@H](O)[C@@H](O)[C@@H]1O (stereo partly drawn) [Dextrose (D-glucose)],1.34,inactive: 1,0.885
O=c1ccc2ccc(OCCCCN3CCN(c4cccc5sccc45)CC3)cc2[nH]1 [Brexpiprazole],1.4,active: 0.419,0.546
C#Cc1cccc(Nc2ncnc3cc4c(cc23)OCCOCCOCCO4)c1 [Icotinib],1.22,inactive: 1.25,1.32
